Measurements as given in the supplement of paper PMC11876631.
± gives the standard deviation of the averaged measurements. Laboratory Escherichia coli strains with one amino-acid change in an essential protein, pooled on minimal glucose agar with carbenicillin or gentamicin at twice the control MIC (plus kanamycin and chloramphenicol for the plasmids), 48 h. Fold change of barcode share against drug-free plates; higher = less susceptible. Active = above 20 in both replicates (the paper's putatively resistant). '<' = one read or none on drug, '>' = one read or none on a drug-free plate. Shares are relative, so most strains fall below 1 when a few take over. Listed are strains with at least 15 reads on both drug-free plates, and hits; most hits rest on fewer reference reads. Replicate rank correlation about 0.5. Edits are read from barcodes.

B1: cysD I20A (protein)
chain: MDQIRLTHLRQLEAESIHIAREVAAEFSNPVMLYSIGKDSSVMLHLARKAFYPGTLPFPLLHVDTGWKFREMYEFRDRTAKAYGCELLVHKNPEGVAMGINPFVHGSAKHTDIMKTEGLKQALNKYGFDAAFGGARRDEEKSRAKERIYSFRDRFHRWDPKNQRPELWHNYNGQINKGESIRVFPLSNWTEQDIWQYIWLENIDIVPLYLAAERPVLERDGMLMMIDDNRIDLQPGEVIKKRMVRFRTLGCWPLTGAVESNAQTLPEIIEEMLVSTTSERQGRVIDRDQAGSMELKKRQGYF
B2: cysD I20Q (protein)
chain: MDQIRLTHLRQLEAESIHIQREVAAEFSNPVMLYSIGKDSSVMLHLARKAFYPGTLPFPLLHVDTGWKFREMYEFRDRTAKAYGCELLVHKNPEGVAMGINPFVHGSAKHTDIMKTEGLKQALNKYGFDAAFGGARRDEEKSRAKERIYSFRDRFHRWDPKNQRPELWHNYNGQINKGESIRVFPLSNWTEQDIWQYIWLENIDIVPLYLAAERPVLERDGMLMMIDDNRIDLQPGEVIKKRMVRFRTLGCWPLTGAVESNAQTLPEIIEEMLVSTTSERQGRVIDRDQAGSMELKKRQGYF
B3: cysD I20W (protein)
chain: MDQIRLTHLRQLEAESIHIWREVAAEFSNPVMLYSIGKDSSVMLHLARKAFYPGTLPFPLLHVDTGWKFREMYEFRDRTAKAYGCELLVHKNPEGVAMGINPFVHGSAKHTDIMKTEGLKQALNKYGFDAAFGGARRDEEKSRAKERIYSFRDRFHRWDPKNQRPELWHNYNGQINKGESIRVFPLSNWTEQDIWQYIWLENIDIVPLYLAAERPVLERDGMLMMIDDNRIDLQPGEVIKKRMVRFRTLGCWPLTGAVESNAQTLPEIIEEMLVSTTSERQGRVIDRDQAGSMELKKRQGYF
B4: cysC V102P (protein)
chain: MALHDENVVWHSHPVTVQQRELHHGHRGVVLWFTGLSGSGKSTVAGALEEALHKLGVSTYLLDGDNVRHGLCSDLGFSDADRKENIRRVGEVANLMVEAGLPVLTAFISPHRAERQMVRERVGEGRFIEVFVDTPLAICEARDPKGLYKKARAGELRNFTGIDSVYEAPESAEIHLNGEQLVTNLVQQLLDLLRQNDIIRS
B5: cysC L48Q (protein)
chain: MALHDENVVWHSHPVTVQQRELHHGHRGVVLWFTGLSGSGKSTVAGAQEEALHKLGVSTYLLDGDNVRHGLCSDLGFSDADRKENIRRVGEVANLMVEAGLVVLTAFISPHRAERQMVRERVGEGRFIEVFVDTPLAICEARDPKGLYKKARAGELRNFTGIDSVYEAPESAEIHLNGEQLVTNLVQQLLDLLRQNDIIRS
B6: cysC L104P (protein)
chain: MALHDENVVWHSHPVTVQQRELHHGHRGVVLWFTGLSGSGKSTVAGALEEALHKLGVSTYLLDGDNVRHGLCSDLGFSDADRKENIRRVGEVANLMVEAGLVVPTAFISPHRAERQMVRERVGEGRFIEVFVDTPLAICEARDPKGLYKKARAGELRNFTGIDSVYEAPESAEIHLNGEQLVTNLVQQLLDLLRQNDIIRS
B7: cysC L104D (protein)
chain: MALHDENVVWHSHPVTVQQRELHHGHRGVVLWFTGLSGSGKSTVAGALEEALHKLGVSTYLLDGDNVRHGLCSDLGFSDADRKENIRRVGEVANLMVEAGLVVDTAFISPHRAERQMVRERVGEGRFIEVFVDTPLAICEARDPKGLYKKARAGELRNFTGIDSVYEAPESAEIHLNGEQLVTNLVQQLLDLLRQNDIIRS
B8: cysC L104W (protein)
chain: MALHDENVVWHSHPVTVQQRELHHGHRGVVLWFTGLSGSGKSTVAGALEEALHKLGVSTYLLDGDNVRHGLCSDLGFSDADRKENIRRVGEVANLMVEAGLVVWTAFISPHRAERQMVRERVGEGRFIEVFVDTPLAICEARDPKGLYKKARAGELRNFTGIDSVYEAPESAEIHLNGEQLVTNLVQQLLDLLRQNDIIRS
B9: cysC L48D (protein)
chain: MALHDENVVWHSHPVTVQQRELHHGHRGVVLWFTGLSGSGKSTVAGADEEALHKLGVSTYLLDGDNVRHGLCSDLGFSDADRKENIRRVGEVANLMVEAGLVVLTAFISPHRAERQMVRERVGEGRFIEVFVDTPLAICEARDPKGLYKKARAGELRNFTGIDSVYEAPESAEIHLNGEQLVTNLVQQLLDLLRQNDIIRS
B10: cysC V118Q (protein)
chain: MALHDENVVWHSHPVTVQQRELHHGHRGVVLWFTGLSGSGKSTVAGALEEALHKLGVSTYLLDGDNVRHGLCSDLGFSDADRKENIRRVGEVANLMVEAGLVVLTAFISPHRAERQMQRERVGEGRFIEVFVDTPLAICEARDPKGLYKKARAGELRNFTGIDSVYEAPESAEIHLNGEQLVTNLVQQLLDLLRQNDIIRS
B11: cysC V118A (protein)
chain: MALHDENVVWHSHPVTVQQRELHHGHRGVVLWFTGLSGSGKSTVAGALEEALHKLGVSTYLLDGDNVRHGLCSDLGFSDADRKENIRRVGEVANLMVEAGLVVLTAFISPHRAERQMARERVGEGRFIEVFVDTPLAICEARDPKGLYKKARAGELRNFTGIDSVYEAPESAEIHLNGEQLVTNLVQQLLDLLRQNDIIRS
B12: cysC L104A (protein)
chain: MALHDENVVWHSHPVTVQQRELHHGHRGVVLWFTGLSGSGKSTVAGALEEALHKLGVSTYLLDGDNVRHGLCSDLGFSDADRKENIRRVGEVANLMVEAGLVVATAFISPHRAERQMVRERVGEGRFIEVFVDTPLAICEARDPKGLYKKARAGELRNFTGIDSVYEAPESAEIHLNGEQLVTNLVQQLLDLLRQNDIIRS
B13: cysC L48A (protein)
chain: MALHDENVVWHSHPVTVQQRELHHGHRGVVLWFTGLSGSGKSTVAGAAEEALHKLGVSTYLLDGDNVRHGLCSDLGFSDADRKENIRRVGEVANLMVEAGLVVLTAFISPHRAERQMVRERVGEGRFIEVFVDTPLAICEARDPKGLYKKARAGELRNFTGIDSVYEAPESAEIHLNGEQLVTNLVQQLLDLLRQNDIIRS
B14: cysC V118W (protein)
chain: MALHDENVVWHSHPVTVQQRELHHGHRGVVLWFTGLSGSGKSTVAGALEEALHKLGVSTYLLDGDNVRHGLCSDLGFSDADRKENIRRVGEVANLMVEAGLVVLTAFISPHRAERQMWRERVGEGRFIEVFVDTPLAICEARDPKGLYKKARAGELRNFTGIDSVYEAPESAEIHLNGEQLVTNLVQQLLDLLRQNDIIRS
B15: cysC V118P (protein)
chain: MALHDENVVWHSHPVTVQQRELHHGHRGVVLWFTGLSGSGKSTVAGALEEALHKLGVSTYLLDGDNVRHGLCSDLGFSDADRKENIRRVGEVANLMVEAGLVVLTAFISPHRAERQMPRERVGEGRFIEVFVDTPLAICEARDPKGLYKKARAGELRNFTGIDSVYEAPESAEIHLNGEQLVTNLVQQLLDLLRQNDIIRS
B16: cysC L104Q (protein)
chain: MALHDENVVWHSHPVTVQQRELHHGHRGVVLWFTGLSGSGKSTVAGALEEALHKLGVSTYLLDGDNVRHGLCSDLGFSDADRKENIRRVGEVANLMVEAGLVVQTAFISPHRAERQMVRERVGEGRFIEVFVDTPLAICEARDPKGLYKKARAGELRNFTGIDSVYEAPESAEIHLNGEQLVTNLVQQLLDLLRQNDIIRS
B17: cysC V103P (protein)
chain: MALHDENVVWHSHPVTVQQRELHHGHRGVVLWFTGLSGSGKSTVAGALEEALHKLGVSTYLLDGDNVRHGLCSDLGFSDADRKENIRRVGEVANLMVEAGLVPLTAFISPHRAERQMVRERVGEGRFIEVFVDTPLAICEARDPKGLYKKARAGELRNFTGIDSVYEAPESAEIHLNGEQLVTNLVQQLLDLLRQNDIIRS
B18: accA I116Q (protein)
chain: MSLNFLDFEQPIAELEAKIDSLTAVSRQDEKLDINIDEEVHRLREKSVELTRKIFADLGAWQIAQLARHPQRPYTLDYVRLAFDEFDELAGDRAYADDKAIVGGIARLDGRPVMIQGHQKGRETKEKIRRNFGMPAPEGYRKALRLMQMAERFKMPIITFIDTPGAYPGVGAEERGQSEAIARNLREMSRLGVPVVCTVIGEGGSGGALAIGVGDKVNMLQYSTYSVISPEGCASILWKSADKAPLAAEAMGIIAPRLKELKLIDSIIPEPLGGAHRNPEAMAASLKAQLLADLADLDVLSTEDLKNRRYQRLMSYGYA

biological target: Escherichia coli (laboratory strain); assay: barcode share on antibiotic plates over drug-free plates; higher = less susceptible; conditions: antibiotic: carbenicillin; 2× MIC (3.1 µg/mL)
Method: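 A pool of E. coli strains, each edited to carry one amino-acid change in an essential protein, was grown for 48 h on minimal glucose agar with or without antibiotic; strain barcodes were sequenced; mean of two replicates.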

Protein	fold change of barcode share
B1	1.36 ± 0.79
B2	0.674 ± 0.054
B3	0.648 ± 0.18
B4	0.61 ± 0.3
B5	0.689 ± 0.13
B6	1.06 ± 0.12
B7	> 57.3 [active]
B8	> 35.6 [active]
B9	1.62 ± 0.42
B10	25.4 [active]
B11	1.07 ± 0.047
B12	0.488 ± 0.2
B13	0.425 ± 0.052
B14	1.38 ± 0.062
B15	4.49 ± 2.4
B16	1.28 ± 0.22
B17	0.82 ± 0.18
B18	0.205 ± 0.0083

same assay, conditions: antibiotic: gentamicin; 2× MIC (MIC 0.45 µg/mL)

Protein	fold change of barcode share
B1	< 0.0187
B4	0.0123 ± 0.0089
B5	0.034 ± 0.033
B9	< 0.0167
B11	0.0336 ± 0.033
B12	0.00683 ± 0.0043
B14	0.048 ± 0.0014
B16	0.0556 ± 0.053
B17	0.0176 ± 0.013
B18	< 0.0112
